Article doi:10.1101/2025.09.24.678334

Target: monomeric actin (ATP•G-actin) from chicken skeletal muscle (chicken) (UniProt P68139)
Assay: SPR; actin (20 nM, about 1000 RU) coupled by EDC/NHS to a CM5 chip; concentration series of analyte; Biacore 8k; 1X HBS-EP+ pH 7.6; Hill equilibrium fit and two-state kinetic fit

Substance: human cofilin-1, wild type (a stretch of the chain, no sequence given) (natural protein; other documents disagree on this pair)
- Kd: 20 µM
